Laboratory results: ChEMBL document CHEMBL5606458, “ASAP - ZIKV NS2B-NS3 protease fluorescence single point” (2024)
About 160 (5.9%) of roughly 2,700 compounds showed an effect of 50% or more. The list shows a part of the results. Where a SMILES comes first, the peptide text is derived from it. The star is where a group is joined. pNA = O=[N+]([O-])c1ccc(N*)cc1; Boc = CC(C)(C)OC(=O)*

Molecular target: Nonstructural protein 3 (Zika virus) (UniProt A0A024AXB9)
[1] = PRVABC59, Concentration 50.0 uM, Number of replicates 1.0
[2] = PRVABC59, Concentration 15.0 uM, Number of replicates 1.0

UniProt A0A024AXB9, sequence (A0A024AXB9 as listed by the source): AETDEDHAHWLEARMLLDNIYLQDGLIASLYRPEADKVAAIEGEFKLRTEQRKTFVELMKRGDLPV

SMILES: CC(C)(C)OC(=O)NCc1cccc(NC(=O)[C@@H](N)c2ccc(OCc3ccccc3)cc2)c1
- inhibition (PRVABC59, Concentration 49.5 uM, Number of replicates 2.0, Standard deviation 2.056917430224086 %): 4.5%
- inhibition (PRVABC59, Concentration 99.01 uM, Number of replicates 2.0, Standard deviation 1.8280366091621592 %): 5.34%
- inhibition (PRVABC59, Concentration 198.0 uM, Number of replicates 2.0, Standard deviation 0.2620084125788834 %): 6.2%

SMILES: CN1CCN(c2ccccc2NC(=O)C2CCN(c3ccc(C=O)cc3)CC2)CC1
- inhibition [1]: 22.1%

SMILES: O=C(c1cc(Cl)ccc1NS(=O)(=O)c1ccc(Oc2ccccc2Cl)cc1)N1CCN(C(=O)C(F)(F)F)CC1
- inhibition [2]: 3.42%

SMILES: CCc1nc([C@@H](C)NC(=O)c2ccc(O)c(NC(=O)c3ccncc3F)c2C)n[nH]1
- inhibition (PRVABC59, Concentration 49.5 uM, Number of replicates 2.0, Standard deviation 3.1408649159179345 %): -4.85%
- inhibition (PRVABC59, Concentration 99.01 uM, Number of replicates 2.0, Standard deviation 2.840728525421065 %): -3.05%
- inhibition (PRVABC59, Concentration 198.0 uM, Number of replicates 2.0, Standard deviation 1.857887141784961 %): 1.32%

SMILES: Cc1cc(CO)c2cccc(CC(=O)NCc3sccc3C)c2n1
- inhibition (PRVABC59, Concentration 49.95 uM, Number of replicates 2.0, Standard deviation 0.585311155534554 %): 22.6%
- inhibition (PRVABC59, Concentration 99.9 uM, Number of replicates 2.0, Standard deviation 0.3155591867724611 %): 30.3%

SMILES: CSCC[C@H](NC(=O)OC(C)(C)C)C(=O)N1CCC[C@H]1C(=O)Nc1ccc([N+](=O)[O-])cc1 (Boc-Met-Pro-pNA)
- inhibition (PRVABC59, Concentration 49.5 uM, Number of replicates 2.0, Standard deviation 2.4553944722955454 %): 8.47%
- inhibition (PRVABC59, Concentration 99.01 uM, Number of replicates 2.0, Standard deviation 0.9634499829759906 %): 16.7%
- inhibition (PRVABC59, Concentration 198.0 uM, Number of replicates 2.0, Standard deviation 1.6135445535944577 %): 30.2%

SMILES: O=C(Nc1ccc(Cl)c(Cl)c1F)c1cc(Cl)ccc1NS(=O)(=O)c1ccc(Oc2ccccc2Cl)cc1
- inhibition [2]: 25.6%

SMILES: CN1CCN(c2ccc(NC(=O)C3CCN(c4ccc(C=O)cc4)CC3)cc2F)CC1
- inhibition [1]: 17.3%

SMILES: O=C(Nc1ccc(Br)c([N+](=O)[O-])c1)c1cc(Cl)ccc1NS(=O)(=O)c1ccc(Oc2ccccc2Cl)cc1
- inhibition [2]: 31.6%

SMILES: O=C(c1cc(Cl)ccc1NS(=O)(=O)c1ccc(Oc2ccccc2Cl)cc1)N1CCC[C@H](c2ccccc2)C1
- inhibition [2]: 21.9%

SMILES: CNC(=O)c1cc(Cl)ccc1NS(=O)(=O)c1ccc(C(=O)N(C)C)cc1
- inhibition (PRVABC59, Concentration 49.5 uM, Number of replicates 2.0, Standard deviation 1.913623666524201 %): -2.08%
- inhibition (PRVABC59, Concentration 99.01 uM, Number of replicates 2.0, Standard deviation 2.2789140693439403 %): -0.135%
- inhibition (PRVABC59, Concentration 198.0 uM, Number of replicates 2.0, Standard deviation 1.38229221366052 %): 2.97%

SMILES: O=Cc1ccc(N2CCC(C(=O)Nc3n[nH]c4ccc(Br)cc34)CC2)cc1
- inhibition [1]: 10.5%

SMILES: O=Cc1ccc(N2CCC(C(=O)N(Cc3ccc([N+](=O)[O-])cc3)C3CC3)CC2)cc1
- inhibition [1]: 24%

SMILES: O=C(Nc1cccc2c(=O)[nH][nH]c(=O)c12)c1cc(Cl)ccc1NS(=O)(=O)c1ccc(Oc2ccccc2Cl)cc1
- inhibition [2]: -9.44%

SMILES: O=Cc1ccc(N2CCC(C(=O)N3CC=C(c4ccccc4)CC3)CC2)cc1
- inhibition [1]: 4.9%

SMILES: Cc1cc(C(=O)N2CCN(C(=O)c3cc(C(C)(F)F)n[nH]3)CC2)cc2nn[nH]c12
- inhibition (PRVABC59, Concentration 49.5 uM, Number of replicates 2.0, Standard deviation 3.4651697001969515 %): 2.52%
- inhibition (PRVABC59, Concentration 99.01 uM, Number of replicates 2.0, Standard deviation 1.9800968752054615 %): 2.99%
- inhibition (PRVABC59, Concentration 198.0 uM, Number of replicates 2.0, Standard deviation 0.03838970984723889 %): 4.49%

SMILES: Cc1nnc([C@H](C)n2cc(C3CCNCC3)c(C)n2)o1
- inhibition (PRVABC59, Concentration 49.5 uM, Number of replicates 2.0, Standard deviation 2.1226892731992764 %): 2.86%
- inhibition (PRVABC59, Concentration 99.01 uM, Number of replicates 2.0, Standard deviation 0.905054217811843 %): 1.28%
- inhibition (PRVABC59, Concentration 198.0 uM, Number of replicates 2.0, Standard deviation 2.9276356642253165 %): -2.8%

SMILES: CCCOc1ccc([C@H](C)NC(=O)c2cc(Cl)ccc2NS(=O)(=O)c2ccc(Oc3ccccc3Cl)cc2)cc1
- inhibition [2]: 24.9%

SMILES: O=C(O)c1cnn([C@H]2CCCN(C(=O)c3c[nH]c4ccccc34)C2)c1
- inhibition (PRVABC59, Concentration 49.5 uM, Number of replicates 2.0, Standard deviation 1.3083534915556765 %): -0.332%
- inhibition (PRVABC59, Concentration 99.01 uM, Number of replicates 2.0, Standard deviation 2.0130508217065533 %): 0.299%
- inhibition (PRVABC59, Concentration 198.0 uM, Number of replicates 2.0, Standard deviation 2.766973268547789 %): 2.52%

SMILES: O=Cc1ccc(N2CCC(C(=O)NC3(c4cccc(F)c4)CC3)CC2)cc1
- inhibition (PRVABC59, Concentration 10.0 uM, Number of replicates 1.0): 22.2%

SMILES: CC(C)[C@H](CNC(=O)C1CCN(c2ccc(C=O)cc2)CC1)N1CCCC1
- inhibition [1]: 27.7%
